# Assay results published in PubChem BioAssay AID624296 (National Center for Advancing Translational Sciences (NCATS), 2012).
# The whole screen tested about 350,000 compounds, of which about 9,900 (2.8%) were called active. The inconclusive results got no clear call from the source; some entries with a clear call stand among them for comparison. The call rests on the fitted dose curve; in most records, active means well fitted activation curve with a large enough effect; inconclusive means small, poorly fitted or top-dose-only effect; inactive means no such curve, though single readings can be large or run the other way. Potencies of inconclusive entries are left out as doubtful fits.
# Assay: A quantitative high throughput screen for small molecules that induce DNA re-replication in MCF 10a normal breast cells. Further: nearly all actives have a fitted effect of over 50% in size. On activity, positive = re-replication: % of control where 0% means no effect.
# Conditions: MCF 10A DNA re-replication, Hoechst nuclear intensity, 48 h; activity, positive = re-replication: at 46.1 µM (top of the series)
# Potency means the concentration at half of the fitted maximal effect; tags describe the fitted curve by direction and shape.
Structure (SMILES),Potency,"activity, positive = re-replication"
Cc1c(C(=O)NCc2ccco2)sc2nc(-c3ccccc3)cn12,"inconclusive [activator, single point]",–
COc1cccc(-c2nn3c(-c4cc(C)[nH]n4)nnc3s2)c1,–,inactive: 16.7%
Cc1ccc(/C=C/C(=O)NC(=S)N2CCN(C)CC2)cc1,–,inactive: 13.7%
Cc1cc(NS(=O)(=O)c2ccccc2)cc(Cl)c1O,–,inactive: 2.1%
COc1ccc(N(CC(=O)NCCC(C)C)C(=O)c2snc(C(=O)NC3CCCCC3)c2N)c(OC)c1,"inconclusive [activator, partial curve]",–
CCOC(=O)c1ccc(NC(=O)c2nc[nH]c2C(=O)N(C)Cc2ccccc2)cc1,"inconclusive [activator, partial curve, poor fit]",–
CCOc1ccc(C(=O)NCC(=O)N2CCCC2)cc1,–,inactive: 1.04%
[O-]/C(=C(\C(=S)NCc1ccccc1)[n+]1ccccc1)c1ccc(Cl)s1,"inconclusive [activator, partial curve, poor fit]",–
O=S(=O)(Cc1ncc(C(F)(F)F)cc1Cl)c1ccccc1,"inconclusive [activator, partial curve]",–
CC1(C)Cc2cccc(OCC(=O)N3CCN(c4cccc(C(F)(F)F)c4)CC3)c2O1,"inconclusive [activator, single point]",–
CC(C)C(=O)Nc1ncc(Cc2ccccc2Cl)s1,–,inactive: 2.74%
Cc1ccc(CN2CCN(/N=C/c3ccc(C(=O)O)cc3)CC2)c(C)c1,–,inactive: -0.184%
COc1ccc(C(C(=O)NC2CCCC2)N(C(=O)c2snc(-c3ccc(F)cc3)c2N)c2cccc(F)c2)cc1 (centres undefined),"inconclusive [activator, single point]",–
Cc1ccc(-c2cc(-c3ccc(F)cc3)c(C#N)c(N)n2)o1,active: 4.11 µM,–
Cc1cc(Oc2ccc(-c3ccccc3)cc2)nc(N2CCOCC2)n1,"inconclusive [activator, partial curve]",–
CCc1cc2c(SC(C)C(=O)NC3CCCC3)ncnc2s1 (centres undefined),"inconclusive [activator, partial curve, poor fit]",–
CCOc1ccc(CNCc2cccnc2)cc1,–,inactive: 0.349%
Cc1ccnc(N2CCCC(C(=O)Nc3cc(F)ccc3C)C2)n1 (centres undefined),"inconclusive [activator, partial curve, poor fit]",–
c1ccc(CN2CCN(c3ncccn3)CC2)cc1,"inconclusive [activator, single point]",–
COc1ccc(-c2c(-c3ccccc3OC)oc3ccccc23)cc1F,"inconclusive [activator, partial curve, poor fit]",–
CCCc1ccc(OC(=O)c2ccc(O)cc2Cl)cc1,"inconclusive [activator, single point]",–
O=C(Nc1ccc2c(c1)OCO2)C1(S(=O)(=O)c2ccc(Cl)cc2)CC1,"inconclusive [activator, single point]",–
COc1ccc(NC(=O)CSc2nnc(Cc3ccc(C)cc3)c(=O)n2N)cc1,"inconclusive [activator, single point]",–

Structure (SMILES),Potency,"activity, positive = re-replication"
O=C(CSC1=NCCN1)NC1CCCCCC1,"inconclusive [activator, single point]",–
COc1cccc(NC(=O)c2c(C)nn(-c3ccccc3)c2Cl)c1,"inconclusive [activator, partial curve, poor fit]",–
COc1cc(C(=O)OCC(=O)N(CC(C)C)C2CCS(=O)(=O)C2)cc(OC)c1C (centres undefined),"inconclusive [activator, single point]",–
O=C(Nc1ccc(Cl)cc1C(=O)NCc1cccnc1)c1ccc(Cl)cc1Cl,"inconclusive [activator, single point]",–
O=C(CCSc1ccccc1Cl)Nc1cccc([N+](=O)[O-])c1,"inconclusive [activator, single point]",–
O=C(Cc1sc(-c2ccccc2Cl)nc1-c1ccccc1)Nc1ccccc1,"inconclusive [activator, single point]",–
O=C(CSc1nc2ccccc2c(=O)n1-c1ccccc1)N1CCc2ccccc2C1,"inconclusive [activator, single point]",–
Cc1ccc(C(=O)/C=C/c2cn(CC(O)CN3CCOCC3)c3ccccc23)cc1 (centres undefined),active: 13 µM,–
Cc1cccc(C)c1N1CCN(S(=O)(=O)c2ccccc2)CC1,"inconclusive [activator, partial curve, poor fit]",–
CCC(C)Sc1cccc(-c2nc3cnccn3c2NC2CCCCC2)c1 (centres undefined),active: 18.4 µM,–
CC(NC(=O)/C(=C/c1ccc(OC(F)F)cc1)c1ccccc1)c1ccccc1 (centres undefined),"inconclusive [activator, partial curve, poor fit]",–
CCN(CC)CCCN(C(=O)c1cccs1)c1nc(-c2ccc(OC)cc2)cs1,"inconclusive [activator, single point]",–
COc1ccc(-c2csc(NC(=O)c3cc(C)on3)c2C#N)cc1OC,"inconclusive [activator, single point]",–
COc1ccc(CCNC(=O)c2c(O)c3c([nH]c2=O)CCCC3)cc1OC,"inconclusive [activator, partial curve, poor fit]",–
N#Cc1ccc(NCCc2ccccn2)c([N+](=O)[O-])c1,–,inactive: -5.91%
CSCCC(=O)N1CCC(n2nccc2NC(=O)CCc2ccccc2)CC1,–,inactive: 2.7%
O=C(N[C@H]1CC1c1ccccc1)c1ccc([N+](=O)[O-])cc1 (some centres undefined),–,inactive: -4.17%
CC#CC[N+](C)(C)CCCCCCCCCCCC,"inconclusive [activator, single point]",–
Cc1ccc2[nH]c3c(N4CCN(Cc5ccccc5)CC4)ncnc3c2c1,"inconclusive [activator, single point]",–
Cc1sc(-c2cccnc2)nc1OC(=O)C1CC1,–,inactive: 1.89%
Cc1ccc2c(c1)C1CN(C)CCC1N2C(=O)COc1ccccc1F (centres undefined),–,inactive: 9.96%
Cc1cc(C)c(S(=O)(=O)Nc2ccccc2C(=O)OCC(=O)NCc2ccccc2)c(C)c1,–,inactive: 0.179%
CC1(c2nnc(-c3ccncc3)o2)CC(c2cccc(Cl)c2)=NO1 (centres undefined),"inconclusive [activator, single point]",–

Structure (SMILES),Potency,"activity, positive = re-replication"
CC(=O)Oc1cc2oc(=O)cc(C)c2cc1Cl,"inconclusive [activator, single point]",–
CCN1C(=O)c2cccc3c(NC(=O)c4ccc(S(=O)(=O)N(C)C)cc4)ccc1c23,"inconclusive [activator, single point]",–
CC(C)C(C(=O)OCC(=O)c1ccccc1)N1C(=O)C2C3C=CC(C3)C2C1=O (centres undefined),–,inactive: 12.4%
O=[N+]([O-])c1ccc(-c2ccc(/C=N/Nc3nc(N4CCCCC4)nc(N4CCCCC4)n3)o2)cc1,–,inactive: 23.2%
C=C(C)c1cc2c(ccc3ccc(=O)oc32)o1,"inconclusive [activator, full curve, poor fit]",–
O=C1OC(c2cccs2)=N/C1=C\c1ccc(-c2ccccc2Cl)o1,"inconclusive [activator, partial curve, poor fit]",–
COc1ccc(CC(=O)Nc2ccccc2N2CCCC2)cc1,–,inactive: -1.28%
CCOc1ccccc1NC(=O)c1cc(SC)ccc1Cl,"inconclusive [activator, single point]",–
CC(C)(C)c1ccc(Cn2c(=N)n(CC(O)c3ccco3)c3ccccc32)cc1 (centres undefined),"inconclusive [activator, partial curve, poor fit]",–
COc1ccc(-c2nc(CCNS(=O)(=O)c3ccc4c(c3)OCCO4)cs2)cc1,–,inactive: 0.932%
O=C(O)c1cccc(N2C(=O)/C(=C/c3ccc(SCc4ccc(Cl)cc4)o3)SC2=S)c1,"inconclusive [activator, single point]",–
CCN(c1ccccc1)S(=O)(=O)c1cccc(C(=O)NCc2ccccc2CN2CCOCC2)c1,"inconclusive [activator, partial curve, poor fit]",–
CC(OC(=O)CC1Sc2ccccc2NC1=O)C(=O)NC1CCCC1 (centres undefined),–,inactive: 10.6%
CCOC(=O)N1CCN(C(c2cccnc2)c2ccc3cccnc3c2O)CC1 (centres undefined),"inconclusive [activator, single point]",–
CC(C)CNS(=O)(=O)c1ccc(CCC(=O)N2CCN(Cc3ccccc3)CC2)cc1,–,inactive: -0.0184%
Brc1ccc(-c2ccc(/C=N/Nc3nc4ccccc4[nH]3)o2)cc1,active: 11.6 µM,–
Cc1ccc2nc(NC(=O)CN(C)S(=O)(=O)c3cccc4nsnc34)sc2c1,"inconclusive [activator, partial curve, poor fit]",–
CCOc1ccc(/C=N/NC(=O)C(C)N(c2ccc(OC)cc2)S(C)(=O)=O)cc1 (centres undefined),–,inactive: -6.62%
O=S(=O)(NCCNS(=O)(=O)c1c(F)cccc1F)c1ccc2c(c1)OCCO2,"inconclusive [activator, partial curve, poor fit]",–
CCc1ccccc1NC(=O)CN1CCN(CC(=O)Nc2cc(C)ccc2OC)CC1,"inconclusive [activator, full curve, poor fit]",–
O=C(Nn1c(SCc2ccc(F)cc2)nc2ccsc2c1=O)c1ccccc1,"inconclusive [activator, single point]",–
Cc1cccc2cc(CN(Cc3cccs3)C(=S)NCC3CCCO3)c(=O)[nH]c12 (centres undefined),"inconclusive [activator, full curve]",–
Cc1ccc2nc(-c3ccccn3)cc(C(=O)Nc3ccc4c(c3)OCO4)c2c1,"inconclusive [activator, single point]",–
